Laboratory results: paper PMC12820563
The other results are listed elsewhere or left out. The list includes weakly bound sequences.

Target: T1, MBP-FoxP3dN (UniProt Q99JB6)
T1 sequence: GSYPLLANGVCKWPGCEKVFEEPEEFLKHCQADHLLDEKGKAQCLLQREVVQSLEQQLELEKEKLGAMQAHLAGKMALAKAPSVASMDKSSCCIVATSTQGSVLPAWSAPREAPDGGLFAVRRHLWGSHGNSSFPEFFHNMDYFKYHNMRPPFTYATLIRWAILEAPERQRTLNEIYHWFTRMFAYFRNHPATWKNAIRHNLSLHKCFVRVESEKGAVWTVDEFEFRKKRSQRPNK
Experiment: PD-seq (MBP pull-down with sequencing)
Conditions: 20 mM Tris-HCl pH 7.5, 100 mM NaCl, 1.5 mM MgCl2, 0.4 uM protein, 0.1 uM dsDNA library, 30 min, room temperature, amylose pull-down; high values mean tight binding; double strand, one strand shown

| Sequence | binding signal (RPM ratio (pull-down/input)) |
| --- | --- |
| GATGATTGTTCTCCCAGCTGATGAATTGCCGGCGTCGAGTAAACAAATTTTCCTAATCTTTCTGTTCAAGCGCCATCTAC | 0.602 |
| GATGATTGTTCTCCCAGCTGATGAATTCGGTTAATCGAGTAAACAAATTTTCCTAATCTTTCTGTTCAAGCGCCATCTAC | 0.418 |
| GATGATTGTTCTCCCAGCTGATGAATTCCCAGTGTCGAGTAAACAAATTTTCCTAATCTTTCTGTTCAAGCGCCATCTAC | 0.318 |
| GATGATTGTTCTCCCAGCTGATGAATTGTAATCCTCGAGTAAACAAATTTTCCTAATCTTTCTGTTCAAGCGCCATCTAC | 0.859 |
| GATGATTGTTCTCCCAGCTGATGAATTGATATGATCGAGTAAACAAATTTTCCTAATCTTTCTGTTCAAGCGCCATCTAC | 0.644 |
| GATGATTGTTCTCCCAGCTGATGAATTATCAGGCTCGAGTAAACAAATTTTCCTAATCTTTCTGTTCAAGCGCCATCTAC | 0.299 |
| GATGATTGTTCTCCCAGCTGATGAATTTCAGCGATCGAGTAAACAAATTTTCCTAATCTTTCTGTTCAAGCGCCATCTAC | 0.456 |
| GATGATTGTTCTCCCAGCTGATGAATTCGATTTGTCGAGTAAACAAATTTTCCTAATCTTTCTGTTCAAGCGCCATCTAC | 2.96 |
| GATGATTGTTCTCCCAGCTGATGAATTCTCAGGATCGAGTAAACAAATTTTCCTAATCTTTCTGTTCAAGCGCCATCTAC | 0.153 |
| GATGATTGTTCTCCCAGCTGATGAATTTGGTGAGTCGAGTAAACAAATTTTCCTAATCTTTCTGTTCAAGCGCCATCTAC | 0.814 |
| GATGATTGTTCTCCCAGCTGATGAATTGAAGTAGTCGAGTAAACAAATTTTCCTAATCTTTCTGTTCAAGCGCCATCTAC | 0.291 |
| GATGATTGTTCTCCCAGCTGATGAATTGAAGACGTCGAGTAAACAAATTTTCCTAATCTTTCTGTTCAAGCGCCATCTAC | 0.255 |
| GATGATTGTTCTCCCAGCTGATGAATTGCGGGTTTCGAGTAAACAAATTTTCCTAATCTTTCTGTTCAAGCGCCATCTAC | 1.16 |
| GATGATTGTTCTCCCAGCTGATGAATTAGTGGTCTCGAGTAAACAAATTTTCCTAATCTTTCTGTTCAAGCGCCATCTAC | 2.22 |
| GATGATTGTTCTCCCAGCTGATGAATTCCTAAATTCGAGTAAACAAATTTTCCTAATCTTTCTGTTCAAGCGCCATCTAC | 0.286 |
| GATGATTGTTCTCCCAGCTGATGAATTAAACTCTTCGAGTAAACAAATTTTCCTAATCTTTCTGTTCAAGCGCCATCTAC | 0.285 |

| Sequence | binding signal (RPM ratio (pull-down/input)) |
| --- | --- |
| GATGATTGTTCTCCCAGCTGATGAATTCAGCCTATCGAGTAAACAAATTTTCCTAATCTTTCTGTTCAAGCGCCATCTAC | 1.64 |
| GATGATTGTTCTCCCAGCTGATGAATTCGTCAGGTCGAGTAAACAAATTTTCCTAATCTTTCTGTTCAAGCGCCATCTAC | 0.551 |
| GATGATTGTTCTCCCAGCTGATGAATTTTGCCGATCGAGTAAACAAATTTTCCTAATCTTTCTGTTCAAGCGCCATCTAC | 0.82 |
| GATGATTGTTCTCCCAGCTGATGAATTTGATAGATCGAGTAAACAAATTTTCCTAATCTTTCTGTTCAAGCGCCATCTAC | 0.347 |
| GATGATTGTTCTCCCAGCTGATGAATTCGCATTATCGAGTAAACAAATTTTCCTAATCTTTCTGTTCAAGCGCCATCTAC | 3.53 |
| GATGATTGTTCTCCCAGCTGATGAATTTGGAGCGTCGAGTAAACAAATTTTCCTAATCTTTCTGTTCAAGCGCCATCTAC | 0.534 |
| GATGATTGTTCTCCCAGCTGATGAATTTACAACCTCGAGTAAACAAATTTTCCTAATCTTTCTGTTCAAGCGCCATCTAC | 0.538 |
| GATGATTGTTCTCCCAGCTGATGAATTAGAAGCCTCGAGTAAACAAATTTTCCTAATCTTTCTGTTCAAGCGCCATCTAC | 0.397 |
| GATGATTGTTCTCCCAGCTGATGAATTCCCACGGTCGAGTAAACAAATTTTCCTAATCTTTCTGTTCAAGCGCCATCTAC | 0.204 |
| GATGATTGTTCTCCCAGCTGATGAATTGTCAGGGTCGAGTAAACAAATTTTCCTAATCTTTCTGTTCAAGCGCCATCTAC | 0.252 |
| GATGATTGTTCTCCCAGCTGATGAATTGGCATGATCGAGTAAACAAATTTTCCTAATCTTTCTGTTCAAGCGCCATCTAC | 0.668 |
| GATGATTGTTCTCCCAGCTGATGAATTAAACATCTCGAGTAAACAAATTTTCCTAATCTTTCTGTTCAAGCGCCATCTAC | 0.782 |
| GATGATTGTTCTCCCAGCTGATGAATTCTGTGAGTCGAGTAAACAAATTTTCCTAATCTTTCTGTTCAAGCGCCATCTAC | 2.1 |
| GATGATTGTTCTCCCAGCTGATGAATTTACTAATTCGAGTAAACAAATTTTCCTAATCTTTCTGTTCAAGCGCCATCTAC | 0.598 |
| GATGATTGTTCTCCCAGCTGATGAATTGTCCCGCTCGAGTAAACAAATTTTCCTAATCTTTCTGTTCAAGCGCCATCTAC | 0.272 |
| GATGATTGTTCTCCCAGCTGATGAATTCACGCCGTCGAGTAAACAAATTTTCCTAATCTTTCTGTTCAAGCGCCATCTAC | 0.726 |
